From article PMC10691697, “A small molecule exerts selective antiviral activity by targeting the human cytomegalovirus nuclear egress complex” (PLOS Pathogens, 2023)

Legend:
[1] = system: HFF cells; test: in vitro; assay type: cell-based, human; conditions: 1.60 μM compound; 6 days; replicates
Experimental: Cytotoxicities of various compounds were determined using a WST-1 assay that measures metabolic activity (Roche), and CC50’s were calculated as described previously.

[2] = system: HCMV expressing GFP (53-F BADGFP); conditions: 1.60 μM compound; 6 dpi; replicates

## C=CC(=O)Nc1cccc(Oc2cc(Cl)nc3[nH]ccc23)c1 [GK1]
[1]
  cytotoxicity on HFF: WST-1 absorbance relative to DMSO vehicle: 100.0000 (2×) and 90.0000
[2]
  anti-HCMV: number of plaques relative to DMSO vehicle: 45.0000 and 42.0000 and 36.0000

Where “and” joins values, the source holds several entries; their conditions need not be identical. Equal values may be shown once.
